In the antibiotic and cytotoxicity screens of Wong et al. (2023):
This is one part of the list.

What was measured:
HSkMC = human skeletal muscle cells; experiment: cytotoxicity call (relative viability < 0.9); details: 10 µM
HepG2 = experiment: cytotoxicity call (relative viability < 0.9); details: 10 µM
S. aureus RN4220 = experiment: growth inhibition call (relative growth <= 0.2); details: 50 µM

SMILES	cytotoxicity call (HSkMC)	cytotoxicity call (HepG2)	growth inhibition call (S. aureus RN4220)
CC(C)(C)OC(=O)C[C@H]1CC=CC[C@@H](CC(=O)N[C@H](CO)Cc2ccccc2)C(=O)N2CCC[C@@H]2COC1=O	inactive	inactive	inactive
Nc1cc(N2CCCCC2)nc(N)[n+]1[O-]	inactive	inactive	inactive
Cc1ccc(S(=O)(=O)NCC[C@@H]2CC[C@@H](NS(=O)(=O)c3ccccc3Cl)[C@@H](CO)O2)cc1	inactive	inactive	inactive
CCC1(c2ccccc2)C(=O)NCNC1=O	inactive	inactive	inactive
O=C(C[C@@H]1CC[C@@H](NC(=O)c2cnccn2)[C@H](CO)O1)NCc1ccccc1F	inactive	inactive	inactive
C[C@@H]1CCCCO[C@@H](CN(C)C(=O)c2ccccc2)[C@H](C)CN([C@H](C)CO)C(=O)c2cc(NC(=O)Nc3ccc4c(c3)OCO4)ccc2O1	inactive	inactive	inactive
COc1ccc(NC(=O)Nc2ccc3c(c2)C(=O)N([C@H](C)CO)C[C@H](C)[C@H](CN(C)S(=O)(=O)c2ccc(C)cc2)OCCCC[C@H](C)O3)cc1	inactive	inactive	inactive
C/C=C/c1ccc2c(c1)O[C@H](CN(C)C(=O)c1ccc3c(c1)OCO3)[C@@H](C)CN([C@@H](C)CO)S2(=O)=O	inactive	inactive	inactive
C[C@@H]1CCCCO[C@H](CN(C)S(=O)(=O)c2ccccc2)[C@@H](C)CN([C@@H](C)CO)C(=O)c2cc(NS(=O)(=O)c3cn(C)cn3)ccc2O1	inactive	inactive	inactive
C[C@@H]1CCCCO[C@@H](CN(C)C(=O)CCC(F)(F)F)[C@@H](C)CN([C@@H](C)CO)C(=O)c2cc(NS(=O)(=O)c3ccc(F)cc3)ccc2O1	inactive	inactive	inactive
NC(=O)c1c(Cl)ncc2c1NCC2	inactive	inactive	inactive
C[C@H](CO)N1C[C@H](C)[C@@H](CN(C)S(=O)(=O)c2cn(C)cn2)Oc2ccc(NC(=O)Cn3cnnn3)cc2C1=O	inactive	inactive	inactive
C[C@H]1CN([C@@H](C)CO)C(=O)c2cc(NS(=O)(=O)c3cn(C)cn3)ccc2O[C@H]1CN(C)Cc1ccc(C(=O)O)cc1	inactive	inactive	inactive
Cc1nnc(C(C)C)n1C1C[C@H]2CC[C@@H](C1)N2CC[C@H](NC(=O)C1CCC(F)(F)CC1)c1ccccc1 (stereo not given in full)	inactive	inactive	inactive
CN(C)c1nc(SCC(N)=O)nc(N(C)C)n1	inactive	inactive	inactive
C[C@@H]1CN([C@H](C)CO)C(=O)c2cc(N(C)C)ccc2O[C@@H](C)CCCCO[C@H]1CN(C)S(C)(=O)=O	inactive	inactive	inactive
C[C@@H]1CN([C@@H](C)CO)S(=O)(=O)c2ccc(C#CC3(O)CCCC3)cc2O[C@@H]1CN(C)C(=O)Cc1ccccc1	inactive	inactive	inactive
C[C@H]1CN([C@@H](C)CO)C(=O)Cc2cc(NC(=O)C3CC3)ccc2O[C@H]1CN(C)S(=O)(=O)c1ccc(Cl)cc1	inactive	active	inactive
C[C@H](CO)N1C[C@H](C)[C@@H](CN(C)S(=O)(=O)c2ccc3c(c2)OCCCO3)OCc2cnnn2CCCC1=O	inactive	inactive	inactive
C[C@@H]1CCCCO[C@@H](CN(C)C(=O)Nc2ccc3c(c2)OCO3)[C@H](C)CN([C@H](C)CO)C(=O)c2cc(NC(=O)NC3CCCCC3)ccc2O1	inactive	inactive	inactive
Cl.NC1=NCC2c3ccccc3Cc3ccccc3N12 (stereo not given)	inactive	inactive	inactive
CC(C)NC(=O)Nc1ccc2c(c1)CC(=O)N([C@@H](C)CO)C[C@H](C)[C@H](CN(C)S(=O)(=O)c1cccs1)O2	inactive	inactive	inactive
Cn1c([C@H]2C=C(C(=O)N3CCOCCOCCOCCOCC3)O[C@@H](OCCCCO)C2)cc(=O)n1-c1ccccc1	inactive	inactive	inactive
COc1cccc(C#Cc2ccc3c(c2)O[C@H](CN(C)S(=O)(=O)c2ccccc2F)[C@H](C)CN([C@@H](C)CO)S3(=O)=O)c1	inactive	inactive	inactive
CC(C)NC(=O)Nc1ccc2c(c1)C(=O)N([C@@H](C)CO)C[C@@H](C)[C@H](CN(C)Cc1ccccc1)OCCCC[C@H](C)O2	inactive	inactive	inactive
C[C@@H]1CCCCO[C@@H](CN(C)CC2CCCCC2)[C@@H](C)CN([C@H](C)CO)C(=O)c2cc(NC(=O)CCCN(C)C)ccc2O1	inactive	inactive	inactive
C[C@H](CO)N1C[C@H](C)[C@@H](CN(C)Cc2ccc(Cl)c(Cl)c2)OCCCC[C@H](C)Oc2ccc(NC(=O)c3ccccc3)cc2C1=O	inactive	inactive	inactive
NC(N)=O	inactive	inactive	inactive

SMILES	cytotoxicity call (HSkMC)	cytotoxicity call (HepG2)	growth inhibition call (S. aureus RN4220)
C[C@@H]1CCCCO[C@@H](CN(C)C(=O)Nc2ccc(F)cc2)[C@H](C)CN([C@H](C)CO)C(=O)c2cc(NC(=O)Nc3cccc4ccccc34)ccc2O1	inactive	inactive	inactive
CN1CCN(C(=O)C[C@@H]2CC[C@H]3[C@@H](COc4ccc(NC(=O)c5cscn5)cc4C(=O)N3C)O2)CC1	inactive	inactive	inactive
COCCC(=O)NS(=O)(=O)c1ccccc1	inactive	inactive	inactive
C[C@H]1CN([C@@H](C)CO)C(=O)c2cc(NC(=O)Cc3ccccc3)ccc2O[C@@H]1CN(C)S(=O)(=O)c1cccs1	inactive	inactive	inactive
C[C@H](CO)N1C[C@H](C)[C@@H](CN(C)Cc2ccc(Cl)c(Cl)c2)Oc2ccc(NC(=O)Nc3ccc(C(F)(F)F)cc3)cc2C1=O	active	active	inactive
Cc1ccc(S(=O)(=O)Nc2ccc3c(c2)C(=O)N([C@H](C)CO)C[C@@H](C)[C@H](CN(C)C(=O)CCC(F)(F)F)OCCCC[C@@H](C)O3)cc1	inactive	inactive	inactive
C[C@@H]1CN([C@@H](C)CO)C(=O)c2cccc(NC(=O)Nc3ccc(C(F)(F)F)cc3)c2O[C@@H]1CN(C)C(=O)Nc1ccc(C(F)(F)F)cc1	active	active	inactive
Cn1c(O)cc(=O)n(C)c1=O	inactive	inactive	inactive
C=CCC[C@@H](Cc1ccc(F)cc1)C(=O)OC[C@@H](NC(=O)[C@@H](CC=C)CC(=O)N(CCO)Cc1ccccc1)c1ccccc1	active	active	inactive
C[C@@H]1CCCCO[C@@H](CN(C)C(=O)Nc2cccc3ccccc23)[C@H](C)CN([C@@H](C)CO)C(=O)c2cc(NC(=O)Nc3ccccc3)ccc2O1	inactive	inactive	inactive
Cc1ccc2nc(SCc3ccc4ccccc4c3)[nH]c2c1	inactive	active	inactive
C[C@@H]1CN([C@@H](C)CO)S(=O)(=O)c2ccc(Br)cc2O[C@@H]1CN(C)C(=O)C1CCCCC1	inactive	inactive	inactive
C[C@@H]1CN([C@@H](C)CO)C(=O)c2c(c3ccccc3n2C)-c2ccccc2CO[C@H]1CN(C)Cc1ccc(Cl)c(Cl)c1	inactive	inactive	inactive
C[C@@H]1CCCCO[C@H](CN(C)CC2CCCCC2)[C@H](C)CN([C@@H](C)CO)C(=O)c2cc(NC(=O)Nc3ccc(F)cc3)ccc2O1	inactive	active	inactive
C[C@@H]1CN([C@H](C)CO)C(=O)c2cc(N(C)C)ccc2O[C@@H](C)CCCCO[C@@H]1CN(C)S(=O)(=O)c1cn(C)cn1	inactive	inactive	inactive
COc1ccccc1CNC(=O)C[C@H]1C[C@H]2c3cc(NC(=O)Cc4ccncc4)ccc3O[C@H]2[C@H](CO)O1	inactive	inactive	inactive
C[C@@H]1CCCCO[C@H](CN(C)C(=O)c2ccccc2)[C@@H](C)CN([C@H](C)CO)C(=O)c2cc(NS(=O)(=O)c3ccc(Cl)cc3)ccc2O1	inactive	inactive	inactive
C[C@@H]1CN([C@H](C)CO)C(=O)c2cc(NS(C)(=O)=O)ccc2O[C@H]1CN(C)S(=O)(=O)c1cccs1	inactive	inactive	inactive
O=C(CCCCCNC(=O)OCc1ccc(CO[C@@H]2C[C@H](c3ccccc3)C=C(C(=O)N3CCN(Cc4ccccc4)CC3)O2)cc1)NO	inactive	inactive	inactive
COc1ccc(CN(C)C[C@H]2OCCCC[C@H](C)Oc3ccc(NC(=O)NC(C)C)cc3C(=O)N([C@@H](C)CO)C[C@@H]2C)cc1	inactive	inactive	inactive
C[C@@H]1CCCCO[C@H](CN(C)C(=O)Nc2cccc3ccccc23)[C@H](C)CN([C@H](C)CO)C(=O)c2cc(N(C)C)ccc2O1	inactive	inactive	inactive
C[C@@H]1CN([C@@H](C)CO)C(=O)c2cc(NC(=O)c3ccncc3)ccc2O[C@@H](C)CCCCO[C@@H]1CN(C)C(=O)Nc1ccc(C(F)(F)F)cc1	inactive	inactive	inactive
CCOC(=O)c1cc2c(c(-c3cccc(Br)c3)n1)[C@@H](CCO[Si](C)(C)C(C)(C)C)N(S(=O)(=O)C(C)(C)C)C2	inactive	inactive	inactive
C[C@@H]1CN([C@@H](C)CO)C(=O)Cc2cc(NS(=O)(=O)c3cccs3)ccc2O[C@@H]1CN(C)Cc1ccc(Oc2ccccc2)cc1	inactive	inactive	inactive
C[C@@H]1CN([C@@H](C)CO)C(=O)c2cc(NC(=O)Nc3ccc(C(F)(F)F)cc3)ccc2O[C@@H]1CN(C)Cc1ccc2c(c1)OCO2	active	active	inactive
C[C@H](CO)N1C[C@H](C)[C@H](CN(C)S(=O)(=O)c2ccccc2)Oc2ncc(C#CC(C)(C)O)cc2C1=O	inactive	inactive	inactive
COc1ccc(NC(=O)Nc2ccc3c(c2)CC(=O)N([C@@H](C)CO)C[C@@H](C)[C@H](CN(C)Cc2ccc(Oc4ccccc4)cc2)O3)cc1	active	active	inactive
